According to the RNAGym collection of RNA variant scans (doi:10.1093/nar/gkz1192):
The source gives no read counts; variants with many changes may rest on few reads.

B1: CPEB3 Ribozyme (parent)
chain: UAACAGGGGGCCACAGCAGAAGCGUUCACGUCGCAGCCCCUGUCAGAUUCUGGUGAAUCUGCGAAUUCUGCUGUAUAUCUC

Variants of: B1
Assay: self-cleavage, relative activity (ratio to wild type); higher = more cleavage; in vitro, sequencing
In short: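 CPEB3 self-cleaving ribozyme mutant libraries were made by rounds of error-prone PCR, barcoded, and transcribed in vitro with T7 RNA polymerase for 5 hours at 37°C. Cleavage occurred during transcription and a 15 min DNase I step before EDTA stop. RNAs were reverse transcribed with template switching and Illumina-sequenced, with DNA sequencing mapping barcodes to variants. Relative activity is the variant's cleaved/total read fraction divided by wild type's (minimum 5 reads), averaged across three batches.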

| Variant | self-cleavage |
| --- | --- |
| C27U U41A G46U U49C | 0.24 |
| C27U U41C U43A | 0.2 |
| C27U U48A A65G U69A U78C | 0.06 |
| C27U U49C A64U U72C | 0.05 |
| C27U U54A A65G G70U U72C | 0.13 |
| C27U U72A C81A | 0.3 |
| C27U U72G A75G | 0.22 |
| A28C A35U A56G | 0.51 |
| A28C A35U U51C | 0.12 |
| A28C A35U U76C | 0.47 |
| A28C A45G A56G A77U | 0.13 |
| A28C A45G A77U | 0.34 |
| A28C A45G U60A | 0.28 |
| A28C A45U A57G | 0.4 |
| A28C A56G A64U | 0.15 |
| A28C A56U U76C | 0.19 |
| A28C C29U A35U C38U U49A U60A A64U | 0.1 |
| A28C C29U U72G | 0.22 |
| A28C C32U C44A U69A U80C | 0.07 |
| A28C C38A U48C U80C | 0.12 |
| A28C C39A U51C A65G | 0.09 |

| Variant | self-cleavage |
| --- | --- |
| A28C C39A U69A | 0.13 |
| A28C C71A U80C | 0.36 |
| A28C G33A U48C U58C U60A A65G | 0.28 |
| A28C G63U U80C | 0.62 |
| A28C U31C C38G U80C | 0.19 |
| A28C U41C U54C A64G U66C | 0.23 |
| A28C U41G G42A U49C U51A G63C U66C | 0.04 |
| A28C U41G G70A | 0.09 |
| A28C U49A U51G U54C | 0.15 |
| A28C U51A U60C | 0.35 |
| A28C U60C U74C | 0.5 |
| A28C U66C U69A U72A | 0.12 |
| A28C U66C U72C | 0.18 |
| A28C U72A U74A | 0.53 |
| A28C U72A U80C | 0.69 |
| A28C U72C U76C | 0.67 |
| A28G A35C C38U A47G U60C | 0.05 |
| A28G A35C U49C | 0.06 |
| A28G A35C U67C | 0.53 |
| A28G A35G A45U | 0.55 |
| A28G A35G A56G | 0.83 |

| Variant | self-cleavage |
| --- | --- |
| A28G A35G A64U | 0.74 |
| A28G A35G C37G U76C | 0.14 |
| A28G A35G C39A U60A | 0.12 |
| A28G A35G C40U U58C | 0.72 |
| A28G A35G U41C U48C U60A U67C C71A | 0.17 |
| A28G A35G U49A | 1.05 |
| A28G A35G U49C | 0.42 |
| A28G A35G U51A U67A | 0.74 |
| A28G A35G U54C U58A U78C | 0.5 |
| A28G A35G U80A | 1.24 |
| A28G A35G U80C | 1.18 |
| A28G A35U A45G | 0.13 |
| A28G A35U C37A G42A A57U | 0.4 |
| A28G A35U C38A | 0.24 |
| A28G A35U U43C U78G | 0.13 |
| A28G A35U U48A | 0.12 |
| A28G A35U U48C A57G | 0.2 |
| A28G A35U U51A A64U | 0.11 |
| A28G A35U U51C U60A U66C | 0.09 |
| A28G A35U U60G | 0.06 |
| A28G A45G A65G | 0.18 |

| Variant | self-cleavage |
| --- | --- |
| A28G A45G C50A U72C | 0.06 |
| A28G A45G U54C U78A | 0.42 |
| A28G A45U A64G | 0.18 |
| A28G A45U A64U A77U | 0.07 |
| A28G A45U A77G | 0.23 |
| A28G A45U C62U | 0.2 |
| A28G A45U U67C | 0.12 |
| A28G A45U U74A | 0.57 |
| A28G A47C U51A | 0.2 |
| A28G A47G A57G | 0.39 |
| A28G A47G A64G A77U | 0.52 |
| A28G A47G U72C U80A | 0.92 |
| A28G A47G U78C | 0.3 |
| A28G A56G A57C U60A U72G | 0.02 |
| A28G A56G A64C U78C | 0.11 |
| A28G A56G C68A U74C | 0.14 |
| A28G A56G U60C | 0.32 |
| A28G A57G U58C | 0.08 |
| A28G A57U A64G | 0.15 |
| A28G A64G U67C | 0.41 |
